In PubChem BioAssay AID485344 (National Center for Advancing Translational Sciences (NCATS), 2010):
Among all 340,000 compounds or so, about 6,900 (2%) were called active. Cut-off read from the data, not from the text of the source: active = inhibition above about 30%; inactive = below that, where a call was filed. This is a selection; strong and weak results do not stand in their true shares. The source gives no active or inactive call for entries shown without one.

biological target: D(2) dopamine receptor (Homo sapiens) (UniProt P14416); test: HTS Assay for Allosteric Antagonists of the Human D2 Dopamine Receptor: Primary Screen for Antagonists; settings: HEK293 TREx D2 cells, calcium flux, dopamine EC80; at 10 µM; stronger effect = higher value; note: 0% is about no effect
UniProt P14416, sequence (P14416 whole entry, looked up): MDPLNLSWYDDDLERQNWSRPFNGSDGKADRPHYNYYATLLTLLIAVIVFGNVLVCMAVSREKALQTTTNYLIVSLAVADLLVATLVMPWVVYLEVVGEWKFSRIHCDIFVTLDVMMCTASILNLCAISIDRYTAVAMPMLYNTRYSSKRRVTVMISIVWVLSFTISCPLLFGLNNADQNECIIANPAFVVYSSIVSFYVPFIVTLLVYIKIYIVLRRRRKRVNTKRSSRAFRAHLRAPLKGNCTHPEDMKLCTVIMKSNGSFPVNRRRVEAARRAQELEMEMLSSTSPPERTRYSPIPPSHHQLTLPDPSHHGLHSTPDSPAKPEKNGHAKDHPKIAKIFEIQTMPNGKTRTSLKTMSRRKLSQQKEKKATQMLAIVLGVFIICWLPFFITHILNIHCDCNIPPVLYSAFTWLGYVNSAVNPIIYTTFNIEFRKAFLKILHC
Procedure, shortened: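 Antagonism is scored as inhibition of an EC80 dopamine-evoked calcium signal in a force-coupled, tetracycline-inducible HEK293 T-REx D2 line, with compound present 180 s before agonist.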

Row | SMILES | inhibition
1 | Cc1cc(C)cc(Nc2nc3ccccc3n3cnnc23)c1 | -12.9%
2 | COCCn1c(C)cc(O)c(C(c2ccc(Cl)cc2)N2CCN(c3ccccc3)CC2)c1=O (stereo not drawn) | -16.5%
3 | COc1ccc(NC(=O)Nc2cccc(OCc3cc(=O)n4cccc(C)c4n3)c2)c(OC)c1 | 10.2%
4 | CN1C(C(=O)c2ccccc2)=C(NC(=O)c2ccccc2Br)c2ccccc2S1(=O)=O | -11.6%
5 | CC(C)c1cc(C(=O)NC(C)c2ccccc2)no1 (stereo not drawn) | 2.14%
6 | CCN(CC)CCNC(=O)c1ccc(Sc2ccc(Cl)cc2)c(NC(C)=O)c1 | active: 36%
7 | CCOc1ccc(C(=O)Nc2ccccc2C(=O)OCc2cc(=O)n3nc(C4CC4)sc3n2)cc1 | 12.6%
8 | COc1ccc(CCNC(=O)c2cc3c(s2)-c2c(C)cccc2OC3)c(OC)c1 | 3.29%
9 | Cc1cc(C)cc(NC(=O)Cn2nnc(C(=O)NCc3ccccc3Cl)c2N)c1 | -13%
10 | CCN(Cc1ccccc1)C(=O)c1cc2c(=O)oc3ccc(C)cc3c2s1 | -1.09%
11 | Cc1ccc(-c2nc(S(=O)(=O)c3ccc(C)cc3)c(SCC(=O)Nc3ccc(F)cc3)o2)cc1 | -5.64%
12 | CCc1ccc(S(=O)(=O)c2nnn3c2nc(Nc2cc(OC)cc(OC)c2)c2cc(Cl)ccc23)cc1 | 1.09%
13 | CN(C)CC(C)(C)CNC(=O)C1CCN(CCCc2ccccc2)CC1 | active: 31.3%
14 | COc1ccc(-c2nc3nc(C)cc(N4CCN(c5cccc(C(F)(F)F)c5)CC4)n3n2)cc1 | -6.57%
15 | COCCCNC(=O)c1ccc(Cn2c(=O)c3ccccc3n(CC(=O)Nc3ccc(C)cc3C)c2=O)cc1 | 4.65%
16 | Cc1ccc2cc3cc(C(=O)N4CCN(c5ccccc5)CC4)oc3nc2c1 | -20.6%
17 | Cc1cc(C)cc(NC(=O)C(=O)NCCCN2CCOCC2)c1 | -18%
18 | CCc1nn(CC(=O)NCc2ccccc2Cl)c(=O)c2cc3ccccc3n12 | 5.3%
19 | CCOc1ccc(CN(C(=O)c2nc(SC)ncc2Cl)C2CCS(=O)(=O)C2)cc1 (stereo not drawn) | -3.61%
20 | CC1CCCCN1CCCNC(=O)c1ccc2c(c1)sc1nc(-c3ccc(F)cc3)cn12 (stereo not drawn) | -3.99%
21 | CCc1ccc(Oc2c(C(F)(F)F)oc3c(CN4CCN(CC)CC4)c(O)ccc3c2=O)cc1 | 12.4%

Row | SMILES | inhibition
22 | O=C(Nc1nc2ccc(S(=O)(=O)N3CCCC3)cc2s1)c1ccc(F)cc1 | -19.3%
23 | Cc1ccc(OCc2ccoc2C(=O)O)cc1C | active: 30.2%
24 | CCOc1ccccc1CNC(=O)c1cn(-c2ccc(OC)cc2)c(=O)c2ccccc12 | 4.86%
25 | COc1cccc(C2=C(C(C)=O)Sc3nnc(C4CCCCC4)n3N2C(C)=O)c1 | -16.6%
26 | COc1cccc(CNC(=O)CSc2n[nH]c(-c3ccccc3Cl)n2)c1OC | 12.9%
27 | Cc1cccc(NC(=O)CSc2nc(=O)n(Cc3ccco3)c3c2CCC3)c1C | 17.1%
28 | CCOc1ccc(NC(=O)[C@H]2O[C@@H]3OC(C)(C)O[C@@H]3[C@H]3OC(C)(C)O[C@H]32)cc1 | 5.83%
29 | CCC(CC)C(=O)Nc1ccc2nc(SCC(=O)N3CCOCC3)sc2c1 | 5.44%
30 | CSc1ccc(CCNC(=O)c2c(C)nn(-c3ccc(F)cc3)c2-n2cccc2)cc1 | -6.13%
31 | O=C(NCc1ccc(Cl)cc1)C1CCN(S(=O)(=O)c2ccc(F)cc2)CC1 | -15.4%
32 | CCOC(=O)c1noc2ncn(Cc3ccc([N+](=O)[O-])cc3)c(=O)c12 | -14.6%
33 | CCC(C)n1c(SCc2ccc(F)cc2Cl)nc2ccsc2c1=O (stereo not drawn) | -4.68%
34 | Cc1ccc(CSc2nc3ccc(NC(=O)CC(C)C)cc3s2)cc1 | 2.39%
35 | COc1ccc(C(=O)NCC(c2ccc(N(C)C)cc2)N2CCOCC2)cc1 (stereo not drawn) | 18.6%
36 | COc1ccc(Cl)cc1NC(=O)CSc1cc(C)[nH]c(=O)n1 | 4.82%
37 | CN(C)CCNC(=O)c1ccc2nc(Cc3ccccc3)oc2c1 | -16.6%
38 | CCN(CC)C(=O)Cn1cc(SCC(=O)Nc2cc(OC)ccc2OC)c2ccccc21 | 6.36%
39 | COc1ccc(OCC(=O)Nc2ccc3c(c2)nc(CN2CCCC2)n3C)cc1 | active: 45.4%
40 | O=c1oc2ccccc2cc1-c1nc(-c2cccc(Cl)c2)cs1 | -22.6%
41 | COc1ccccc1N1CCN(c2ncc3c(n2)CCN(Cc2ccc(C)s2)C3)CC1 | -10.3%
42 | COc1ccc(NC(=O)CN2CCCN(Cc3ccccc3)S2(=O)=O)cc1 | 1.25%

Row | SMILES | inhibition
43 | Cc1ccc(NC(=O)C2CCN(S(=O)(=O)c3ccc4c(c3)CCCC(=O)N4)CC2)c(Br)c1 | -16.4%
44 | Cc1cccc(NS(=O)(=O)c2ccc3c(c2)n(C)c(=O)n3C)c1C | 15.5%
45 | Fc1ccc(CNc2nc(-c3ccc(Cl)cc3)cc(C(F)(F)F)n2)cc1 | 1.6%
46 | CCCCOC(=O)c1ccc(NC(=O)c2ccc3c(c2)CCCN3S(C)(=O)=O)cc1 | 1.9%
47 | O=C(CSc1nc2ccccc2nc1Cc1ccc(Cl)cc1)N1CCCCC1 | 21.6%
48 | CCc1ccccc1-n1c(SCC(=O)Nc2ccc(C)cc2)nc2n[nH]c(C)c2c1=N | -16.4%
49 | COc1ccc2nc(NC(=O)C3CCN(S(=O)(=O)c4cnc[nH]4)CC3)sc2c1 | active: 32.3%
50 | O=C(c1ccc2c(c1)N(Cc1ccccc1Cl)C(=O)c1ccccc1S2)N1CCCC1 | -7.39%
51 | CCc1cccc(NC(=O)Cn2c(-c3ccc(F)cc3)cc(C(C)=O)c2C)c1 | -11.4%
52 | Cc1ccc(NC(=O)CN2CCCCCC2)cc1Br | active: 41.5%
53 | Cc1ccccc1CNC(=O)CN1CCSc2ccccc21 | -10.1%
54 | Nc1nc2nc(-c3ccccc3)cc(=O)n2[nH]1 | 0.731%
55 | COc1ccc(Nc2ncc(C(=O)Nc3ccc(F)cc3F)c3ccccc23)cc1 | 7.88%
56 | CCCOc1ccc(/C=C2\SC(N)=NC2=O)cc1OC | active: 65.7%
57 | CCC(C(=O)Nc1cc(-c2cn3cccnc3n2)ccc1C)c1ccccc1 (stereo not drawn) | -10.5%
58 | CCOCCCn1c(SCC(=O)Nc2ccc(F)cc2)nc2c(sc3ccccc32)c1=O | 11%
59 | COc1ccccc1N1CCN(S(=O)(=O)c2ccc3c(c2)CCCN3C(C)=O)CC1 | 8.45%
60 | Cc1cc(=O)n2nc(N3CCC(C(=O)NCCCOC(C)C)CC3)sc2n1 | 2.33%
61 | O=C(CSc1nnc(CNC(=O)c2ccccc2)n1-c1ccc(F)cc1)Nc1ccccc1F | 21.9%
62 | O=C(CC1NCCNC1=O)Nc1ccc(F)c(Cl)c1 (stereo not drawn) | -1.09%
63 | Cc1nn(-c2ccc(F)cc2)c(-n2cccc2)c1C(=O)N1CCCCC1C (stereo not drawn) | -6.59%
